# Reference: PubChem BioAssay AID1745853 (National Center for Advancing Translational Sciences (NCATS), 2022)
# Several values for one entry are separate records, joined by “and”; a condition that tells them apart may be missing. Equal values may be shown once. The list shows a part of the results. Further columns of the screen follow, without active or inactive calls.
# Key:
# Assay in all cases: Primary Screen for Target Class Profiling of Small Molecule Inhibitors of Methyltransferases
# [1] = biological target: Glycine N-methyltransferase (Homo sapiens) (UniProt Q14749); settings: purified enzyme, MTase-Glo SAH luminescence; measured here: GNMT inhibition; at 40 µM; stronger effect = lower value
# How it was run: (§1)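 Each enzyme was reacted with SAM and its substrate, with compounds tested once at 40 uM; SAH formed was read by MTase-Glo luminescence.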
# [2] = biological target: Guanidinoacetate N-methyltransferase (Homo sapiens) (UniProt Q14353); settings: purified enzyme, MTase-Glo SAH luminescence; measured here: GAMT inhibition; at 40 µM; stronger effect = lower value
# How it was run: as §1
# [3] = biological target: Histamine N-methyltransferase (Homo sapiens) (UniProt P50135); settings: purified enzyme, MTase-Glo SAH luminescence; measured here: HNMT inhibition; at 40 µM; stronger effect = lower value
# How it was run: as §1
# [4] = biological target: Nicotinamide N-methyltransferase (Homo sapiens) (UniProt P40261); settings: purified enzyme, MTase-Glo SAH luminescence; measured here: NNMT inhibition; at 40 µM; stronger effect = lower value
# How it was run: as §1
# [5] = biological target: Phenylethanolamine N-methyltransferase (Homo sapiens) (UniProt P11086); settings: purified enzyme, MTase-Glo SAH luminescence; measured here: PNMT inhibition; at 40 µM; stronger effect = lower value
# How it was run: as §1
# On the % scale 0 is the no-effect control and ±100 the full control effect.
SMILES,"activity change, negative = inhibition [1]","activity change, negative = inhibition [2]","activity change, negative = inhibition [3]","activity change, negative = inhibition [4]","activity change, negative = inhibition [5]"
COc1ccc(CNC(=O)C2(C)Cn3cnc(C(=O)Nc4ccc(Cl)cn4)c3C(=O)N2C2CC2)cc1 (stereo not drawn),-0.563%,1.55%,11.2%,-0.315%,8.63%
Clc1ccc2c(N3CCN(CCCN4CCN(c5ccnc6cc(Cl)ccc56)CC4)CC3)ccnc2c1,-8.57%,2.06%,-2.58%,-5.93%,5.61%
Cc1ccc(C)c(N2C(=O)c3cc(C4CC4)nn3CC2(C)C(=O)NC2CCCCCC2)c1 (stereo not drawn),-2.1%,4.24%,-2.57%,-1.34%,1.1%
COC(=O)c1cc2n(n1)CC(C)(C(=O)NC1CCC(C)CC1)N(Cc1ccc(C)cc1)C2=O (stereo not drawn),4.79%,1.41%,8.42%,2.43%,4.38%
Cc1ccc(-c2noc(-c3cccc(S(=O)(=O)N4CCN(c5cccc(C)c5)C(C)C4)c3)n2)cc1 (stereo not drawn),15.8%,0%,11.5%,1.8%,6.55%
CN(C)S(=O)(=O)N1CCOCCNC(=O)[C@@H]2CCC[C@@H]21,-3.72%,-0.231%,1.03%,-0.379%,11.3%
COc1ccc(-c2nc(-c3cc(C(F)(F)F)cc(C(F)(F)F)c3)n(Cc3ccc(C(N)=O)cc3)c2-c2ccc(OC)cc2)cc1,3.26%,-36.2%,2.02%,-52.6%,-12.6%
CCN1C[C@H](C)n2c(c(O)c3c(=O)n(Cc4ccc(F)c(Cl)c4)nc(C(=O)NC)c32)C1=O,3.74% and 3.95%,6.59% and 7.42%,15.3% and 11.4%,-9.22% and -8.84%,2.66% and 4.29%
Cc1ccc(N2C(=O)c3cc4occc4n3CC2(C)C(=O)NC2CCCCC2)cc1C (stereo not drawn),-6.05%,0%,0.028%,5.23%,-2.65%
COc1ccc2cc(C(C)C(=O)Oc3ccc(C(N)=S)cc3)ccc2c1 (stereo not drawn),-5.44%,-6.78%,6.22%,-23.1%,-1.52%
CCCCNC(=O)c1ccc2c(=O)nc3c(-c4ccc(OC)cc4)n[nH]n3c2c1,1.14%,0%,8.24%,8.29%,3.47%
CC(C)N1CCN(C(=O)c2cc3cn(C4CC4)cc3s2)CC1,-10.2%,-6.94%,-10.6%,-3.56%,-23.5%
Clc1ccccc1CNCC1CCC(CNCc2ccccc2Cl)CC1 (stereo not drawn),3.46%,15.5%,0.955%,-9.52%,0.676%
CCOC(=O)c1cc2n(n1)CC(C)(C(=O)NC1CCCCCC1)N(c1ccc(F)cc1C)C2=O (stereo not drawn),9.91%,2.1%,6.65%,10.6%,5.07%
CCN(CCCNC(=O)CCc1nnc2n(CC(C)C)c(=O)c3ccccc3n12)c1cccc(C)c1,-7.94%,1.12%,4.57%,-10.9%,0.323%
Cc1ccc(-c2n[nH]n3c2nc(=O)c2ccc(C(=O)NCc4ccccc4Cl)cc23)cc1,-10.3%,0%,-3.58%,-8.28%,-7.56%
O=C(O)c1cc(=O)c2c(Cl)cc(Cl)cc2[nH]1,-4.17%,15.7%,5.23%,1.06%,12.8%
COc1cc(C(O)C2COC(c3ccc(OC4OC(CO)C(O)C(O)C4O)c(OC)c3)C2CO)ccc1O (stereo not drawn),-0.809%,2.54%,10.1%,-8.93%,-3.31%
CCCNC(=O)Nc1ccc(Oc2ncnc3cc(OC)c(OC)cc23)cc1Cl,-3.08%,4.2%,3.3%,-10.3%,5.38%
C/C=C(\C)C(=O)OC1C[C@@]2(COC(C)=O)O[C@H]2/C=C\[C@@]2(C)O[C@@H]2[C@H]2OC(=O)C(COC(C)=O)=C12 (stereo partly drawn),-3.59%,-18.4%,2.82%,-29.7%,-1.71%

SMILES,"activity change, negative = inhibition [1]","activity change, negative = inhibition [2]","activity change, negative = inhibition [3]","activity change, negative = inhibition [4]","activity change, negative = inhibition [5]"
CN1CCN(C[C@@H]2CN(C(=O)CCCc3cccs3)C[C@@H]2CO)CC1,1.21%,3.54%,-0.802%,-1.49%,15.8%
CCOc1ccc(CNC(=O)C(CC)n2ccc3cc(S(=O)(=O)N4CCCCC4)ccc32)cc1 (stereo not drawn),9.72%,0%,7.32%,7.62%,4.28%
Cc1ccc(S(=O)(=O)c2nnn3c2nc(NCc2ccccc2)c2ccccc23)cc1,-2.67%,0%,4.62%,0.945%,0.075%
O=C(NCc1ccccn1)Nc1nnc(-c2ccco2)o1,1.61%,-3.34%,1.52%,-14.2%,-6.4%
CCCn1c(=O)c2ccc(C(=O)NC3CCCCC3)cc2n2c(SCC(N)=O)nnc12,1.13%,0%,3.89%,4.49%,2.76%
CCN1C(=O)c2cc(C(=O)NCc3ccc(OC)cc3)nn2CC1(C)C(=O)NC1CCCC1 (stereo not drawn),4.62%,0%,-0.666%,9.35%,4.79%
CCOc1ccccc1CN1C(=O)CSc2c(c3ccccc3n2C)C1C(=O)NCc1ccccc1 (stereo not drawn),4.3%,0.017%,-1.82%,2.64%,5.47%
Cc1ccc(C)c(C(=O)N[C@@H]2CN(c3ccncn3)C[C@H]2CO)c1,-0.299%,-2.13%,1.02%,-4.49%,-17.6%
COc1ccc(C(=O)N[C@H]2CO[C@H]3[C@@H]2OC[C@@H]3Nc2nccc(-c3cccs3)n2)cc1,-17.1%,-1.92%,-0.669%,-4.46%,-4.7%
O=C(COc1ccccc1)N[C@H]1CO[C@H]2[C@@H]1OC[C@@H]2n1nnnc1Oc1ccc2c(c1)OCO2,-2.04%,-2.76%,-0.931%,3.91%,-3.81%
O=c1c2ccccc2n2c(-c3ccccc3F)nnc2n1Cc1ccc(F)cc1,-10.4%,3.84%,-2.94%,-11.4%,-0.425%
CN(C)C(=O)C(=O)c1cn(C)c2cc(Cl)c(C(=O)N3CCC(Cc4ccc(F)cc4)CC3)cc12,-7.95%,5.78%,5.12%,-26%,4.16%
CCCn1c(=O)c2ccc(Cl)cc2n2c(=O)n(CC(=O)c3ccccc3)nc12,-1.98%,1.38%,6.5%,-6.48%,2.17%
O=C(NC[C@H]1OC[C@@H](NC2CCOCC2)[C@@H]1O)N1CCOCC1,-2.6%,-5.83%,-1.02%,-12.7%,-3.2%
CC1(C(=O)NC2CCCCC2)Cn2c(nc3ccccc32)C(=O)N1Cc1ccco1 (stereo not drawn),3.59%,0%,5.21%,4.3%,1.89%
O=C([C@@H]1C[C@H](Oc2ccccc2)CN1C(=O)Nc1ccccc1F)N1CCOCC1,-4.77%,-8.56%,-6.15%,-12%,-32.2%
CC(C)(CO)c1cc2cc(NC(=O)C3(c4ccc5c(c4)OC(F)(F)O5)CC3)c(F)cc2n1CC(O)CO (stereo not drawn),3.77%,24.2%,10.4%,3.84%,8.89%
CSc1cccc(N2C(=O)c3ccc(-c4ccco4)n3CC2(C)C(=O)NC2CCCC2)c1 (stereo not drawn),-18%,0%,0.661%,-10.8%,-10.2%
CC(C)CNC(=O)c1ccc2c(=O)n(C)c3nn(CC(=O)NC4CCCCC4)c(=O)n3c2c1,1.6%,2.55%,2.38%,-4.85%,-1.49%
C[C@@H](O[C@H]1OCCN(Cc2n[nH]c(=O)[nH]2)[C@H]1c1ccc(F)cc1)c1cc(C(F)(F)F)cc(C(F)(F)F)c1,,12.5%,,-15.8%,6.49%

SMILES,"activity change, negative = inhibition [1]","activity change, negative = inhibition [2]","activity change, negative = inhibition [3]","activity change, negative = inhibition [4]","activity change, negative = inhibition [5]"
CN1C(=O)c2cc(C(=O)NC3CCCC3)nn2CC1(C)C(=O)NCc1ccccc1 (stereo not drawn),5.98%,0.174%,3.78%,8.02%,2.95%
O=C(Cn1c(=O)oc2cc(S(=O)(=O)N3CCCC3)ccc21)Nc1cc(F)ccc1F,1.7%,0%,5.42%,10.9%,-5.22%
CN1[C@H](C(=O)O)C[C@H](C(=O)NCC2(CO)CCCC2)[C@@H]1c1ccccc1F,-3.41%,-13.2%,-2.35%,-12.5%,-2.74%
COc1ccc(NC(=O)COc2ccc(NC(=O)C3CC3)cn2)cc1,-10.3%,-12.1%,-4.61%,-18.9%,-14.8%
COC(=O)Cn1nc(-c2cccc(OC)c2)c2ccccc21,0.391%,2.32%,9.62%,-12.4%,1.41%
COc1cccc(CN2CCN(C(=O)c3cnc4ccccn4c3=O)CC2=O)c1,-1.97%,-0.678%,0.62%,-1.89%,-1.35%
CCOC(=O)c1cc2n(n1)CC(C)(C(=O)NC1CCCCC1)N(c1cccc(CC)c1)C2=O (stereo not drawn),4.36%,0%,-5.71%,3.36%,5.08%
N#Cc1ccc(C(=O)Nc2ccc(=O)n3c2[C@@H]2C[C@@H](CN(C(=O)c4ccc(F)cc4)C2)C3)cc1,-8.5%,-9.31%,-5.07%,-8.46%,-2.15%
C=CCn1c(=O)c2ccc(C(=O)NC(C)C)cc2n2c(=O)n(CC(=O)Nc3cccc(C)c3)nc12,4.32%,0%,4.99%,3.24%,3.58%
Cc1ccc(CCNS(=O)(=O)c2ccc3[nH]c(=O)[nH]c3c2)cc1,13.8%,0.206%,12.2%,0.637%,-0.877%
Cc1ccc(N2C(=O)c3cc4occc4n3CC2(C)C(=O)NC2CCCCCC2)c(C)c1 (stereo not drawn),-0.87%,4.78%,1.8%,4.68%,-1.35%
CCOC(=O)c1cc2n(n1)CC(C)(C(=O)NC1CCCCCC1)N(c1ccccc1OC)C2=O (stereo not drawn),5.46%,0%,0.576%,6.82%,4.73%
CCCCN(CCCC)CC(O)c1cc(Cl)cc2c1-c1ccc(Cl)cc1/C2=C/c1ccc(Cl)cc1 (stereo not drawn),-10.1%,14.8%,0.907%,-10.6%,4.66%
Cc1cn(-c2cc(NC(=O)c3ccc(C)c(Nc4nccc(-c5cccnc5)n4)c3)cc(C(F)(F)F)c2)cn1,-7.39%,2.71%,-4.09%,-13%,-12.4%
CC1=C2C[C@H]3OC(=O)[C@H](O)[C@@]4(O)[C@@H](C)[C@@H](O)[C@H](O)C([C@@]2(C)[C@H](O)[C@@H](O)C1)[C@@]34C (stereo partly drawn),4.13%,5.86%,8.46%,-5.97%,3.02%
CC1(C(=O)NC2CCCCCC2)Cn2c(ccc2-c2ccccc2)C(=O)N1Cc1ccccc1Cl (stereo not drawn),4.79%,0%,2.28%,-6.26%,-0.681%
Cc1ccc(CSc2nnc3n(CC(C)C)c(=O)c4ccccc4n23)cc1,3%,8.25%,5.98%,-1.86%,4.36%
O=C1CC2(CCN(C(=O)c3ccc(Cl)cc3)CC2)Oc2cc(Cl)ccc21,-8.35%,-3.2%,-1.53%,-15.5%,4%
